Results reported in the supplement of paper PMC10126150.
Values marked as one replicate rest on one cluster of the flow cell; about a third of the high ones do not repeat.

Tested on: ATP
Assay: switch fluorescence ratio, 500 uM ATP over buffer (Cy3 cluster intensity, sum of 5 cycles each) (fold (ratio)); higher = stronger signal-on switching upon ATP binding; sequences stand for … in TCGTCGGCAGCGTCAGATGTGTATAAGAGACAGTTTTTTTTTTTTTTTTTTTTTTTTT…TC
Conditions: aptamer strand: ATP DNA aptamer (quencher-CACCTGGGGGAGTATTGCGGAGGAAGG + anchor), 100 nM annealed; ATP concentration: 500 uM; one replicate
Summary of the method: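 Exposure to 500 uM ATP lasted 15 min at 22 °C before imaging, and a selection-buffer image was taken beforehand, for Cy3-labelled switching-strand clusters on a modified Illumina MiSeq flow-cell annealed to 100 nM quencher-labelled ATP aptamer. Five buffer/ATP cycles were run with NaOH stripping and re-annealing between them. The fluorescence ratio per cluster is summed target-cycle over summed buffer-cycle Cy3 intensity, averaged per switch-domain sequence. Clusters outside 100-1000 RFU were excluded.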

Sequence | switch fluorescence ratio
GTGTTCTAGG | 0.975
GTAGTTATTC | 1
CTACATGCTC | 1.03
TATCCAAATG | 1.08
CTTAACTTAT | 1.01
GTGCTGGCTG | 1
GGCATTTATC | 0.964
ACTATTTAT | 0.938
ACCCTGGTCC | 1.07
GAATATACGG | 1.04
ATATAACCTT | 1.74
CCCCGATCT | 1.09
AACTCACACA | 1.2
CTCAGACTG | 1.1
CGAGACTAAG | 0.99
ATGAAAGGGC | 1
GTAACATGAT | 1.05
CCGAAAGGCT | 0.967
TTATCATAG | 1.03
GTGACTCTGG | 1.01
GACATCTTAC | 1.21
CGATAATTAG | 1.02
GAGTTGTGGA | 0.986

Sequence | switch fluorescence ratio
ACGTAAAGGC | 1.1
AAGAAAAGAC | 1.02
GGCATGTTTA | 1.03
AACCCCGCGT | 1.66
TTGGGAGATC | 0.981
GTTAACTGAC | 1.06
TCCAGCTCAT | 1.05
AGTGGGATTC | 1.02
TTAGGGCAGC | 0.953
TTTAGTCCCT | 0.959
CGTTGTTGTC | 1.02
CCGGAGGGTT | 1.01
AGAACTTCGC | 1.15
TTAATTTAAT | 0.994
GAGTTGTGCT | 0.981
CAATTGAGCG | 1
ACGGCTCCGA | 1.07
AGAATCGTGG | 1.01
CTCATGCGGC | 1.32
ACCTTGGGTC | 0.982
CATTATTTT | 0.979
CTGATTTGAC | 0.995
GGGGCCATAA | 0.986

Sequence | switch fluorescence ratio
TGCAACGCAT | 1.01
GGACCCTTTG | 1.03
ACGATCGTAC | 1.02
CCCCAGGTTT | 4.62
CGTGTGTCCA | 1.01
GCTGGCGTGT | 1.08
TACAATAAGT | 1
TTTAAAATCC | 1.01
AAACTAAGGG | 1.01
CATGGCGTCT | 0.991
CGCCATCTTC | 1.01
GGAGTCGCAT | 0.998
ATATGCGATT | 1
GGGTGTCCAT | 0.965
GCTACGTTAT | 1.35
GTATATGGTA | 1.01
AGTTATCCCA | 0.997
AGGAGAGGG | 0.957
GCCATGCTGC | 0.937
CGACGCGTAG | 2.1
CACTTGGGGG | 0.983
GTAGCGCAGC | 1.03
GTAACTTTTG | 1.03

Sequence | switch fluorescence ratio
ATAAGGGAA | 1.01
TTGCTGGATC | 1.03
AAAGTCCGCA | 2.13
AAATCTTGCA | 1.1
TGGCCAACGG | 1.01
TACCTTACAG | 1.37
CATTAGCGTG | 1.03
AATTAAATAT | 0.977
CGCGCCCGGA | 1.04
GAGGGGATGC | 1.09
AAGCGGGGA | 1.02
GGGTATGCGC | 0.953
CCCGCCGGGG | 1.99
ACCCTGCAGT | 1.17
AAGAGAAAGC | 1.02
TTTGATAATC | 0.976
ACGATGACGT | 1.05
GGTGATCCGG | 0.967
CCTGATTTTT | 1
AGGAGGGTAT | 0.981
CTATGGGAGT | 0.942
ATCGCTCGCG | 1.03
AGCCAAATAG | 1.17

Sequence | switch fluorescence ratio
GGGCTTATAT | 1.25
AGTGGATTC | 0.958
GAAATGCCGC | 0.965
TTGGAGTTGA | 1.02
ACTTATAGCC | 1.03
TCATCCAGAT | 1.01
AATAACTCTT | 1.03
GGGTTTTGTC | 0.962
ACACATCCAG | 1.06
TACGAGGCT | 1.14
GTGATAATA | 1.02
ATTAATCGGG | 1.98
GCCTATATGC | 1.02
TTAGAGCCCG | 0.949
TTCATGACTA | 0.984
GGCCAATGAT | 0.985
CGAGTCCAAT | 0.979
TGATATGAA | 1.04
TTGTTCAAGA | 0.959
GATGAGCCTC | 1.01
CGAGTTTAGC | 0.952
GGGTCAGTCG | 0.938
CCCCAAAGTG | 4.26

Sequence | switch fluorescence ratio
TATCGAAAGG | 1.42
AACAGTTAAG | 1.02
AATCGCCGTT | 0.997
TACCTTCATT | 1.19
ATCAGACGTG | 1
CGCCCGTTG | 1.03
GGTGAAATAG | 0.999
GTTGTATACC | 0.971
CGGACAAAAA | 1.02
AAAGTAACCG | 1.01
ATTTGGTATG | 0.982
TTCCGCGG | 1.09
GTGGTTAAGT | 0.983
TGGTTAAGTC | 1.03
TTGATTCAAC | 1.02
ACCGGCTGCC | 0.992
GTGGGAGGCG | 0.987
GTGAATAAGA | 0.991
GTCGATAGGA | 0.94
GTTTCCCAG | 1.02
AGGGGTTA | 1.01
TTTCCTTTCT | 0.939
TATAAATACC | 1.42

Sequence | switch fluorescence ratio
CTTGTACAGT | 0.971
TGAGTCACAC | 0.995
CTGCCACGAA | 0.96
GAACGTTGGA | 0.987
CCAGGCACAG | 1.05
CGACTGTCGG | 0.971
TAAAAATCAG | 1.03
AAATACGTCG | 0.939
TTAGGCAGGA | 0.975
GAGCGTATTC | 1.11
GTCGTGTAGA | 1.03
ACATTTTCCG | 0.987
TGCAGAACGG | 1.15
CGAGGTCCTG | 0.951
TATGAAACAG | 0.983
AGGAGTGCTC | 0.989
AAATAGTAGT | 0.99
TCACTCGGCA | 1.65
TTTAGAGAAG | 0.972
